The values that follow come from PubChem BioAssay AID488969 (Vanderbilt High Throughput Screening Facility, 2010).

In all, about 110,000 compounds were measured (“z-score”: median about -0.1, highest 2% from about 2 on). The list shows a part of the results.

This test concerns the target Metabotropic glutamate receptor 8 (Rattus norvegicus) (UniProt P70579). As to the kind of experiment: mGluR8 Gi/Go-coupled signaling modulation – cell-based, rat, thallium flux, HTS, primary screen (AID 488969). To be noted: HEK293 rat mGluR8, GIRK (G protein-gated inwardly rectifying potassium channel) thallium flux, FluoZin2; at 10 µM; stronger effect = higher value; submaximal glutamate (EC20) added with thallium.
Sequence of UniProt P70579 (P70579 whole entry, looked up): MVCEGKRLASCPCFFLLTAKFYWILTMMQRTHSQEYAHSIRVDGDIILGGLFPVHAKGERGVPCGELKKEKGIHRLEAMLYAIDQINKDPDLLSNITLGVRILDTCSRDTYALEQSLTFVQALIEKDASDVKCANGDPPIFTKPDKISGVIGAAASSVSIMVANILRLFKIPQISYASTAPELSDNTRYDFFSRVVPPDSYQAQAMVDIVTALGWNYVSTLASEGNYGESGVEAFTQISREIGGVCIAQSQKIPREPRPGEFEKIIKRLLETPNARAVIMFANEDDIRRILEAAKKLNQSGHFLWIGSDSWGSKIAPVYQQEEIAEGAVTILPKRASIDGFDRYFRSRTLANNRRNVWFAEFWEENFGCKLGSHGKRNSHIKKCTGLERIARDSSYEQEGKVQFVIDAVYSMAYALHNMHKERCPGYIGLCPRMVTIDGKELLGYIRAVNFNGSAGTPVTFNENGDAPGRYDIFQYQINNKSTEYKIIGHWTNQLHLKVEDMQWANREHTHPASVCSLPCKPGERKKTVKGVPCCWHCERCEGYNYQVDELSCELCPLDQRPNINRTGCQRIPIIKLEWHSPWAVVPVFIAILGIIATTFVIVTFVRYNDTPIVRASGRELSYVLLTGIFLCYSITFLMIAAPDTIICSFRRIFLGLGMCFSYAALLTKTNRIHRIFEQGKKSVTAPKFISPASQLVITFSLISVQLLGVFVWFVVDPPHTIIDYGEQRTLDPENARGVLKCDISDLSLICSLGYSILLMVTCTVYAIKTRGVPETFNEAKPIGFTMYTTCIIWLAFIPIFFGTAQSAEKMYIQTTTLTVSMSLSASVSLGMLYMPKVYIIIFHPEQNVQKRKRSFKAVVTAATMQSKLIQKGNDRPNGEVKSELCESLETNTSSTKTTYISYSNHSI
Compound `N#Cc1c(-c2ccc(F)cc2)cc(-c2cccnc2)nc1N` returned a z-score of -0.0757.
Turning to `COC(=O)c1cc(Br)c(=O)n(Cc2ccco2)c1`, the z-score was -0.845.
Then `CC1CCN(S(=O)(=O)c2ccc3ncn(CC(=O)N(C)Cc4ccccc4)c(=O)c3c2)CC1`, with -0.0738; and `CCCCC(=O)Nc1ccc(NC(=O)c2ccccc2OC)cn1`, with -0.456.
Under `CCN1C(=O)C(CC(=O)NC)N(NC(=O)c2ccccc2)C1=S` (stereo not given) stands -0.0424.
Then `Cc1ccc(S(=O)(=O)n2nc(-c3ccco3)nc2SCc2ccccc2)cc1`, with 0.644.
`Cc1cc2c(c(=O)o1)C(c1cccs1)C(C#N)=C(N)O2` (stereo not given) displayed a z-score of -0.332.
Under `COc1cc([N+](=O)[O-])cc(/C=N/NC(=O)C(C)Nc2cccc(C)c2)c1O` (stereo not given) stands -0.708; under `COC(=O)c1nc2n(n1)C(c1cccc(Cl)c1)C1=C(CCCC1=O)N2` (stereo not given), 0.113; under `CCN(CCCNC(=O)C1CCC(=O)N1Cc1ccc(F)cc1)c1cccc(C)c1` (stereo not given), 0.139.
Under `COc1cc(C(=O)NC2CCCCC2)ccc1OCc1ccc(Cl)cc1Cl` stands -0.287; under `Cc1ccc(-c2csc(N)n2)s1`, 0.023; under `CCOC(=O)Nc1ccc2c(c1)N(C(=O)OC)c1ccccc1CC2`, -0.356.
Compound `CCOC(=O)COc1c(OC)cc(Cl)cc1C1NC(=O)NC(C)=C1C(C)=O` (stereo not given) displayed a z-score of -0.0118.
Turning to `Cc1nc(N)c(C#N)c(-c2ccccc2)c1C`, the z-score is -0.124.
Under `COc1ccc(CCNC(=O)C(C(=O)c2ccc(F)cc2)n2ccccc2=O)cc1OC` (stereo not given) stands -0.63; under `Cc1ccc(-c2nnc(-c3ccc(Br)cc3)o2)o1`, -0.0973.
Turning to `C=CCNC(=S)NNC(=O)c1ccc(OCC)cc1`, the z-score was -0.313.
In turn, `COC(=O)c1cc(OC)c(OC)cc1NC(=O)C(C)c1ccc([N+](=O)[O-])cc1` (stereo not given) came in with a z-score of -0.631.
Then `COc1cccc(-c2nc(CS(=O)(=O)CC(=O)NCc3ccccc3OC)c(C)o2)c1`, with 0.531; and `CCCOc1ccc(C(=O)Nc2ccc(Cl)cn2)cc1`, with -0.115; and `CCOc1ccc(S(=O)(=O)N2CCN(C(=O)c3cccn3C)CC2)cc1`, with 0.165.
Under `CCc1c(C)nc2cc(-c3cccs3)[nH]n2c1=O` stands -0.282; under `CCCCC(CCC(=O)NNC(=O)Cc1ccccc1)C(=O)O` (stereo not given), 0.00219; under `Cc1cc(C)n(CCCO)c(=O)c1C#N`, 0.114.
Then `CCN1C=C(Cc2ccc(OC)cc2)C2=C(C1)C(c1ccc(OC)cc1)C(C#N)=C(N)O2` (stereo not given), with -0.119.
Regarding `O=C(CCC(=O)N1CCOCC1)Nc1nnc(C2CCCCC2)s1`, the z-score is 0.559.
Under `CCCc1nnc2n1N=C(c1ccc(-c3cc(Cl)ccc3Cl)o1)CS2` stands -0.981; under `CCCCN(CC)C(=O)CN1C(=O)c2ccccc2C1=O`, 0.0331.
Then `O=C(NCCc1ccccn1)c1cc(-c2ccc(Cl)c(Cl)c2Cl)nc2ccccc12`, with -0.136.
Compound `Cc1cccc(N2CCN(C(=O)CC(NC(=O)c3ccccc3Cl)c3ccccc3)CC2)c1C` (stereo not given) showed a z-score of 0.289.
Then `CNc1ccc(Br)cc(C(=O)/C=C/c2cc(OC)ccc2OC)c1=O`, with 0.00567; and `O=C(Nc1ccccc1)c1sc2cc(C(F)(F)F)cnc2c1-c1cccs1`, with 0.0142.
Then `Cc1cc(NC(=O)CSc2nc(-c3ccccc3)cs2)no1`, with -0.516; and `CC1(C)CC(=O)C2=C(C1)N(Cc1ccco1)C(=O)NC2(C(F)(F)F)C(F)(F)F`, with -0.404.
Under `CSc1nc(-c2ccco2)nn1C(=O)Cc1ccccc1` stands 0.394.
`Cc1c(-c2nn(C)c(=O)c3ccccc23)oc2ccc(F)cc2c1=O` gave a z-score of -0.255.
Then `Oc1ccc(-c2nnc(-c3ccc(O)cc3)nn2)cc1`, with 0.485; and `CCCC1CCC(=NNS(=O)(=O)c2ccc(C)c([N+](=O)[O-])c2)CC1` (stereo not given), with -0.584.
Under `O=C(CSc1ccc(Cl)cc1)Nc1ccccc1N1CCN(C(=O)c2ccc(Cl)cc2)CC1` stands -0.157; under `CC1(C)CC(=O)C2=C(C1)N(c1ccc(F)cc1)C(=O)CC2c1ccsc1` (stereo not given), -1.29.
The compound `CC(=O)c1ccc(N2CCC(c3cc(-c4ccc(Cl)cc4)n[nH]3)CC2)c([N+](=O)[O-])c1` came in with a z-score of 0.126.
Take `Cc1sc(-c2ccccn2)nc1OC(=O)c1ccc(Cl)cc1`: the z-score was -0.355.
Then `CCc1ccc(-c2nn(-c3cc(Cl)ccc3[N+](=O)[O-])c(=O)c3ccccc23)cc1`, with 0.744; and `COc1cc(Cl)c(C)cc1NC(=O)CSc1ccc(C)cc1`, with -0.182; and `O=C(O)c1ccc(N/N=C/c2ccc(F)c(F)c2)cc1`, with -0.223.
`CC(=O)Nc1cccc(OCC(O)Cn2c(C)nc3ccccc32)c1` (stereo not given) gave a z-score of -0.108.
Compound `CC12CC(c3ccccc3O1)N(C(=O)c1ccco1)C(=S)N2c1ccccc1` (stereo not given) came in with a z-score of -0.0857.
Under `FC(F)(F)c1cc(-c2cccs2)nc(-n2cc(Cl)cn2)n1` stands -0.103.
Then `COc1ccc(NC(=O)CSc2ccccc2)c(OC)c1`, with 0.185; and `CC1=C(C(=O)Nc2ccc(C)cc2C)C(c2ccc(Cl)cc2)n2nc(C(=O)OC(C)C)nc2N1` (stereo not given), with -0.0741.
Then `Cc1ccc(C(=O)NCCc2sc(C)nc2C)cc1`, with -0.323; and `Cc1ccc(S(=O)(=O)Nc2ccc(Br)cc2C(NCC(=O)O)c2ccccc2)cc1` (stereo not given), with -0.841; and `COC(=O)c1ccccc1NC(=O)CSc1nnc(-c2ccc(C)cc2)o1`, with -0.262.
On to `Cc1ccc(OCCn2cc(/C=C(\C#N)C(=O)NCC3CCCO3)c3ccccc32)cc1C` (stereo not given), for which the z-score was -0.333.
Under `O=C(Cc1ccccc1)Nc1ccc(N2CCOCC2)cc1N1CCOCC1` stands -0.544; under `O=C(COc1ccc([N+](=O)[O-])cc1)NCc1cccnc1`, -0.0376; under `CC(C)(C)NC(=O)Cn1nnc(-c2cccs2)n1`, -0.167.
As for `COc1cc(OC)c(OC)cc1NC(=O)CC1COc2ccccc2O1` (stereo not given), the z-score was -0.0814.
On to `CN(C)c1ccc(C(=O)c2ccc(N(C)C)c(N)c2)cc1N`, for which the z-score is -0.143.
Under `Cc1ccc(-n2nnc3c(SCC(=O)NCc4ccco4)ncnc32)cc1` stands 0.269.
For `Cc1csc(SCc2nc3sc4c(c3c(=O)[nH]2)CCC4)n1`, the z-score was determined as 0.454.
The compound `Nc1nonc1-c1nc2ccccc2n1Cc1ccc(F)cc1` showed a z-score of -0.145.
`CCOC(=O)N1CCN(C(=O)c2ccc3c(=O)n(-c4ccc(F)cc4)c(=S)[nH]c3c2)CC1` returned a z-score of -1.16.
`COC(=O)c1ccccc1NC(=S)NC(=O)C1CC1` registered a z-score of -0.189.
For `Cc1ccc(S(=O)(=O)NCCCCCC(=O)N(C)C)cc1`, the z-score is 2.19.
Regarding `O=C(CN1CCCCCC1)Nc1ccc(F)c(F)c1`, the z-score came to 0.471.
Under `CCOC(=O)Cc1cc(=O)n2[nH]c(C)c(-c3ccc(OC)cc3)c2n1` stands -0.933; under `O=C(c1ccc(Br)cc1)c1cc([N+](=O)[O-])ccc1N1CCCCC1`, -0.166.
Then `CN1C(=O)C(CC(=O)N2CCN(C(c3ccccc3)c3ccccc3)CC2)N(C)C1=O` (stereo not given), with 0.633.
